The results in this text go back to PubChem BioAssay (NCI).

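Test compounds were applied to cells in 96-well plates for 48 hours at 5 doses. Here, GI50 denotes the concentration required for 50% inhibition of growth.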 Some entries of the source have several records that differ or are many. The list is limited to them. An entry can have further records. For some of these results: The tests behind the records often covered other concentration ranges, which the source does not state; a value can be the end of its range. Brackets tell where a record comes from. Letters hold for one entry only. For some of these results: The records of an entry are repeats (runs, samples, wells, individuals or studies).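 TGI is the concentration that stops growth completely.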

Among the test systems are CCRF-CEM leukemia; SR leukemia; COLO 205 colon; OVCAR-8 ovarian; HT29 colon; MCF7 breast; NCI-H460 lung; EKVX NSCLC; KM12 colon; 786-0 renal; SF-295 CNS; NCI-H23 lung; PC-3 prostate; MOLT-4 leukemia; T-47D breast; UACC-62 melanoma; HOP-92 NSCLC; BT-549 breast; SF-539 CNS; DU-145 prostate; MDA-N; SK-MEL-2 melanoma; SK-OV-3 ovarian; SK-MEL-28 melanoma; SNB-75 CNS; OVCAR-5 ovarian; K-562 leukemia; HCT-15 colon; MDA-MB-435; RPMI-8226 leukemia; OVCAR-3 ovarian; UACC-257 melanoma; NCI/ADR-RES ovarian; UO-31 renal; SK-MEL-5 melanoma; NCI-H226 lung; OVCAR-4 ovarian; TK-10 renal; A549 NSCLC; HCT-116 colon; U251 CNS; HL-60(TB) leukemia; MDA-MB-231 breast; M14 melanoma.

What all share (assay): growth of human tumour cells (NCI), 48 h

Turning to `C=C1c2nc3ccccc3n2C=C(c2ccc(Cl)cc2)N1c1ccc(OCCN2CCCCC2)cc1`, the TGI in the assay with CCRF-CEM leukemia is > 45 µM and 2.32 µM; in the assay on SR leukemia, > 45 µM and 756 nM.

For `C[C@H]1CCC/C=C/[C@@H]2C[C@H](O)C[C@H]2[C@H](O)/C=C/C(=O)O1`, the GI50 with COLO 205 colon is < 10 nM [sample A, 1 test] and 110 nM [sample B, mean of 2 tests]; in the assay with BT-549 breast, < 10 nM [sample A, 1 test] and 190 nM [sample B, 1 test] and 92.9 nM [sample B, mean of 2 tests]. The TGI in the assay on OVCAR-8 ovarian is > 100 µM [sample A] and 812 nM, 3.74 µM [sample B]; with HT29 colon it was 13.4 nM [sample A] and 825 nM, 1.09 µM [sample B]; in the assay on MCF7 breast it was 57.2 nM [sample A] and 67 nM, 1.77 µM [sample B]; in the assay on NCI-H460 lung, > 100 µM [sample A, mean of 2 tests] and > 13.5 µM [sample B, mean of 3 tests] and 325 nM [sample B, mean of 4 tests]; in the assay with EKVX NSCLC it was > 100 µM [sample A, mean of 2 tests] and 2.73 µM, 5.35 µM [sample B, mean of 3 tests]; with KM12 colon, < 16 nM [sample A] and 24.8 nM, 380 nM [sample B]. Moreover, the TGI was 31.4 nM and 391 nM in the assay on 786-0 renal; 3.69 µM [sample A, mean of 2 tests] and > 100 µM [sample B, mean of 3 tests] in the assay on SF-295 CNS; 210 nM and 21.6 µM in the assay with NCI-H23 lung; > 87.4 µM [sample A, mean of 2 tests] and 8.89 µM, > 100 µM [sample B, mean of 2 tests] in the assay on PC-3 prostate; 519 nM [sample A, mean of 2 tests] and > 57.9 µM [sample B, mean of 3 tests] and 927 nM [sample B, mean of 4 tests] in the assay with MOLT-4 leukemia; 8.96 µM [sample A] and 383 nM, 95.2 µM [sample B] with T-47D breast. For the same molecule, the TGI was 4.59 µM [sample A] and 54.3 nM [sample B] in the assay with UACC-62 melanoma; > 100 µM [sample A] and 2.64 µM, 356 nM [sample B] in the assay with HOP-92 NSCLC; 86 nM [sample A, 1 test] and > 100 µM [sample B, 1 test] and 6.34 µM [sample B, mean of 2 tests] in the assay with BT-549 breast; > 100 µM [sample A] and 2.14 µM, > 51.8 µM [sample B] with SF-539 CNS; > 100 µM [sample A, mean of 2 tests] and 15 µM [sample B, 1 test] and 914 nM [sample B, mean of 2 tests] in the assay on DU-145 prostate; > 100 µM [sample A] and 9.45 µM, 11.1 µM [sample B] with MDA-N. Besides, the TGI is > 100 µM [sample A] and 263 nM, 279 nM [sample B] in the assay on SK-MEL-2 melanoma; > 100 µM [sample A] and 880 nM, > 100 µM [sample B] in the assay on SK-OV-3 ovarian; > 100 µM [sample A] and 1.62 µM, > 8.85 µM [sample B] in the assay on SK-MEL-28 melanoma; < 10 nM [sample A] and 2.54 µM, 1.31 µM [sample B] in the assay with SNB-75 CNS; > 100 µM [sample A] and 726 nM, 12.6 µM [sample B] in the assay on OVCAR-5 ovarian; > 100 µM [sample A] and 8.49 µM, > 100 µM [sample B] in the assay on K-562 leukemia. Further, the TGI was > 100 µM [sample A] and 1.02 µM, 2.33 µM [sample B] with HCT-15 colon; 500 nM and > 100 µM in the assay with SR leukemia; > 100 µM [sample A, mean of 2 tests] and 899 nM [sample B, mean of 2 tests] in the assay on MDA-MB-435; > 57.7 µM [mean of 3 tests] and 3.45 µM [mean of 4 tests] with RPMI-8226 leukemia; 1.65 µM [sample A] and 146 nM, 792 nM [sample B] with OVCAR-3 ovarian; > 64 µM [sample A] and 104 nM, 1.37 µM [sample B] in the assay on UACC-257 melanoma. The TGI in the assay with NCI/ADR-RES ovarian is > 100 µM [sample A] and 121 nM, > 100 µM [sample B].

Take `COC(=O)[C@@H](C)C[C@H](Cc1ccccc1)NC(=O)c1csc([C@@H](C[C@H](C(C)C)N(C)C(=O)[C@@H](NC(=O)[C@H]2CCCN2C)C2CC2)OC(C)=O)n1`: the GI50 was 25.7 nM and 2.5 nM with UO-31 renal; 0.204 nM and 2.5 nM in the assay with MCF7 breast; 433 nM and 2.5 nM in the assay with NCI-H226 lung; 4.44 nM and 1.3 µM in the assay on OVCAR-4 ovarian; 43.3 nM and 2.5 nM in the assay with OVCAR-5 ovarian; 0.163 nM and 2.5 nM in the assay with SR leukemia. Besides, in the assay on TK-10 renal, the GI50 was 335 nM and 2.5 nM. The TGI is 107 nM and < 2.5 nM in the assay on SK-MEL-5 melanoma; 129 nM and < 2.5 nM in the assay with BT-549 breast.

Consider `O=C1CC(CC(OCc2ccccc2)C(OCc2ccccc2)C(COCc2ccccc2)OCc2ccccc2)CC(=O)N1` (configuration not stated), for which the TGI in the assay with UO-31 renal is > 100 µM [sample A, 1 test] and 5.64 µM [sample B, 1 test]. Also, the GI50 was > 100 µM [sample A, 1 test] and 6.23 µM [sample B, 1 test] in the assay on A549 NSCLC; > 100 µM [sample A, 1 test] and 7.68 µM [sample B, 1 test] in the assay on MCF7 breast; > 100 µM [sample A, 1 test] and 9.28 µM [sample B, 1 test] in the assay with NCI-H460 lung; > 100 µM [sample A, 1 test] and 8.8 µM [sample B, 1 test] with HCT-116 colon; 15.8 nM [sample A, 1 test] and 6.46 µM [sample B, 1 test] in the assay with KM12 colon; > 100 µM [sample A, 1 test] and 9.54 µM [sample B, 1 test] in the assay on OVCAR-4 ovarian. Also, the GI50 is > 100 µM [sample A, 1 test] and 8.13 µM [sample B, 1 test] in the assay with SNB-75 CNS; > 100 µM [sample A, 1 test] and 6.17 µM [sample B, 1 test] in the assay on CCRF-CEM leukemia; > 100 µM [sample A, 1 test] and 5.77 µM [sample B, 1 test] in the assay with K-562 leukemia; > 100 µM [sample A, 1 test] and 6.99 µM [sample B, 1 test] with HCT-15 colon; > 100 µM [sample A, 1 test] and 4.54 µM [sample B, 1 test] in the assay with U251 CNS; > 100 µM [sample A, 1 test] and 6.84 µM [sample B, 1 test] in the assay with SR leukemia. Moreover, the GI50 in the assay on MDA-MB-435 is > 100 µM [sample A, 1 test] and 7.61 µM [sample B, 1 test]; in the assay with RPMI-8226 leukemia it was > 100 µM [sample A, 1 test] and 6.56 µM [sample B, 1 test]; with HL-60(TB) leukemia, > 100 µM [sample A, 1 test] and 5.43 µM [sample B, 1 test].

Regarding `CN1CCN(CCCN2c3ccccc3Sc3ccc(Cl)cc32)CC1`, the TGI with HT29 colon was 67.6 µM [sample A, 1 test] and 6.62 µM [sample B, 1 test]; in the assay on MDA-MB-231 breast, 64.3 µM [sample A, 1 test] and 6.24 µM [sample B, 1 test]; in the assay on UACC-62 melanoma, 64.8 µM [sample A, 1 test] and 1.83 µM [sample B, 1 test]; with SK-MEL-28 melanoma it was 56.5 µM [sample A, 1 test] and 2.34 µM [sample B, 1 test]; in the assay on SNB-75 CNS, 80.4 µM [sample A, 1 test] and 7.33 µM [sample B, 1 test]; in the assay on M14 melanoma, 56.4 µM [sample A, 1 test] and 2.47 µM [sample B, 1 test]. For the same molecule, in the assay with UACC-257 melanoma, the TGI was 62.7 µM [sample A, 1 test] and 2.04 µM [sample B, 1 test].
